# Over roughly 33,000 sequences, “E-score (-0.5 to 0.5)” has its median near -0.016; the highest 2% begin near 0.31. This is one part of the list.
# Biological target: Cst6 (UniProt P40535)
# Assay: PBM E-score (8-mer binding enrichment) (E-score (-0.5 to 0.5)); higher = stronger / more preferred TF binding; most listed sequences are background and not binding sites
# Settings: protein concentration: 200 nM; construct: GST-DNA-binding domain
# Method in brief: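 Universal all-10-mer Agilent arrays, double-stranded by primer extension on fresh or once-stripped slides, were probed with about 100-200 nM GST-tagged yeast transcription factors made by PURExpress. Fluorescent anti-GST detected bound protein, and masliner normalised the scans. E-scores from the Universal PBM Analysis Suite were given to each ungapped eight-base word pooled with its reverse complement.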
row,Sequence,PBM E-score
1,CCTTTAGA,-0.0473
2,CAACAACG,0.0911
3,AGAATAAA,0.291
4,ACAGAGTG,-0.0722
5,AATGATAT,0.322
6,GTGCCTAA,-0.00582
7,GACGGCTA,0.0897
8,AGGGACAT,-0.181
9,TAAGAATA,0.114
10,ATGCGTCG,0.0508
11,CATGCCCG,-0.0136
12,GCAAAATA,0.201
13,GCAATAGC,0.0326
14,CGCAATGA,0.0802
15,ATCAGTAA,0.273
16,CTTCTTCA,0.00766
17,GGTCGACC,-0.179
18,ACCTCCGC,-0.205
19,CAGACCAA,-0.154
20,CAAGGTTA,0.0789
21,AATAATTG,0.121
22,CAAGCACA,-0.161
23,CTTGTTCA,-0.043
24,ATAACGAA,0.217
25,CCGTACGG,-0.193

row,Sequence,PBM E-score
1,ACAGTGGG,-0.222
2,AAAGTATA,0.185
3,AACGGCGG,-0.102
4,CAACAGGG,-0.178
5,AGCGACCG,-0.0879
6,TCACAGCA,0.181
7,GAATTAGC,0.0469
8,GAGATCAC,0.04
9,AAAGTAAT,0.184
10,AGAAGTAC,-0.0811
11,TGCGCAAA,-0.0425
12,AACACACA,0.133
13,GCGGTACC,-0.149
14,GTCGTGAA,-0.133
15,TGCCAGCA,-0.0744
16,ACTAGGAC,-0.239
17,AACTCTGA,0.205
18,AGATCTTG,-0.0661
19,AACCAGAA,0.0142
20,GAAAGTGA,0.115
21,CTGAATTA,0.131
22,CTGCTAGC,-0.265
23,AAATTACT,0.222
24,AGCGCAAT,0.0127
25,CCGACCAC,-0.191

row,Sequence,PBM E-score
1,GTGCACAA,-0.189
2,ATTGTCTG,0.106
3,ATGGTCGG,-0.165
4,AGTACCGC,-0.0301
5,CAGAAAGC,0.105
6,AAGTCCGT,-0.18
7,GGTTTAAA,0.225
8,ACGTCGAA,0.112
9,CAATATAG,0.0707
10,CTGCACTA,0.0693
11,AGGCATAA,-0.0546
12,GAAGTAGA,0.0684
13,ACAAGCAT,0.017
14,ATGCTGAC,0.2
15,CGATGCTC,-0.239
16,TCACTGCA,0.267
17,TAAACGGA,0.089
18,AGCCACAG,-0.232
19,CCCCTACC,-0.178
20,ACAAAAAG,0.162
21,CAATTCCA,-0.0303
22,CGTTATGC,0.0991
23,CTTACTGA,-0.0696
24,ATCTACAC,0.137
25,CCCGATAG,-0.284

row,Sequence,PBM E-score
1,ACTTTGTA,-0.0265
2,CGGCCTAC,-0.154
3,CAGCAAAC,0
4,CCCTACTA,-0.198
5,GATATGTA,0.222
6,CATTGAAG,-0.0928
7,TTAGCGAA,0.0763
8,CGGCTCGC,0.209
9,ACTTTTAT,0.227
10,AATAAGAT,0.232
11,TGGGTACA,-0.0378
12,TAGCGTGA,0.0336
13,ATCATTTG,0.165
14,GGGTAATA,0.112
15,CGATACGA,-0.179
16,CCTACGCA,-0.124
17,CGTCTTCC,-0.0784
18,GCCATCAA,-0.169
19,TAACTTGA,0.0256
20,AGCCTACT,-0.0568
21,ATCGTCCC,0.0558
22,AACCTCGC,-0.106
23,CCCTCCAG,-0.29
24,GACCGAGA,-0.122
25,AAGCGTCG,-0.151

row,Sequence,PBM E-score
1,GTTGCCGA,0.0213
2,AGGCAGCA,0.0454
3,AAGGTGAT,0.111
4,CGTGCCAG,-0.157
5,AATATAAT,0.156
6,CCGACGAC,-0.0829
7,ACCACAAA,0.168
8,CCTTAGAC,-0.0481
9,CTCCATTA,-0.0521
10,GTTACATA,0.228
11,ACTTTGTG,0.101
12,ACCAAATA,0.198
13,CGCCACGA,-0.0813
14,GCCTGCAC,-0.19
15,ACGCGGGA,-0.0943
16,CGTCTACA,-0.134
17,AACGGATG,-0.0223
18,GTTCGGTA,-0.0154
19,TGGCCGAA,-0.0894
20,CTCTCATA,-0.0554
21,CGATGCTA,-0.105
22,CATGACAC,0.328
23,CCAACATA,0.181
24,CAAGTCTG,-0.0136
25,CCCTAAGC,-0.24

row,Sequence,PBM E-score
1,CGTGCGCA,0.0679
2,CAGGGTGA,-0.0149
3,AGTCGCTC,-0.228
4,CAGCATTC,-0.0336
5,ATCTGAAC,-0.0107
6,ACTTCTGG,-0.0785
7,TCTCAGAA,0.115
8,CAATGCGC,0.151
9,TGGGAAAA,0.0883
10,AAGCATTA,-0.0152
11,AATATTGA,0.226
12,TCAAGTGA,0.0697
13,CTACGGGC,-0.389
14,ACACCGTA,-0.059
15,ACTTCGCA,0.0833
16,CCTCATCC,-0.272
17,CAGGTAGC,-0.216
18,TAATTGTA,0.258
19,AGAACCTC,-0.158
20,CTGGGGAA,-0.246
21,ATCATCAC,0.341
22,CCGTAGCG,-0.192
23,TAGTAGGA,-0.137
24,ACTAACAA,0.133
25,TCCAACAA,0.0654

row,Sequence,PBM E-score
1,GACGTATC,0.294
2,CAATCTCG,-0.119
3,AAGGACGA,-0.192
4,ATGCTCCA,-0.141
5,GAATTCGC,0.0432
6,CGACGCCG,0.266
7,AAAAGAGG,-0.121
8,GCTTTGAC,0.108
9,ACCGGGCC,-0.137
10,ACCGACAC,-0.0742
11,AGGTATAC,0.0822
12,AGATGACT,0.0398
13,AGGCCTCG,-0.301
14,AATATTCG,0.133
15,GCAAACGC,0.00191
16,CCCTACCC,-0.15
17,GACGTGCA,0.197
18,CTGTGACA,0.228
19,ATAGACGC,0.0881
20,ATCAGGAA,0.0251
21,CCGCTGCA,0.0316
22,CTGCGAAG,-0.246
